A compilation of properties of binary mixtures (doi:10.1039/c8ra04127j)
Some of these densities may be calculated back from excess volumes.

Assay: xn = mol fraction of the nth substance listed
Conditions: 100 kPa

CC#N + C[N+](C)(C)CCC[n+]1ccccc1.N#C[N-]C#N.N#C[N-]C#N
x2 = 0
Conditions | mass density [kg/m3]
283.15 K | 792.8
288.15 K | 787.5
293.15 K | 782.1
298.15 K | 776.7
303.15 K | 771.3
308.15 K | 765.8
313.15 K | 760.3
318.15 K | 754.8
323.15 K | 749.2

CC#N + C[N+](C)(C)CCC[N+]1(C)CCCCC1.N#C[N-]C#N.N#C[N-]C#N
x2 = 0
Conditions | mass density [kg/m3]
283.15 K | 792.8
293.15 K | 782.1
308.15 K | 765.8
313.15 K | 760.3
318.15 K | 754.8
323.15 K | 749.2
328.15 K | 743.6

C[N+](C)(C)CCC[N+]1(C)CCCCC1.N#C[N-]C#N.N#C[N-]C#N + CC#N
mass density [kg/m3]
Conditions | x1 = 0.0999 | x1 = 0.2001 | x1 = 0.3001 | x1 = 0.3998 | x1 = 0.5002 | x1 = 0.6 | x1 = 0.7001 | x1 = 0.7996 | x1 = 0.8998 | x1 = 1
283.15 K | 936.4 | 1003.8 | 1041.8 | 1065.1 | 1081.5 | 1093 | 1101.5 | 1108.1 | 1113.9 | –
288.15 K | 932.4 | 1000.3 | 1038.6 | 1062 | 1078.4 | 1090.1 | 1098.6 | – | 1111 | 1116
293.15 K | – | 996.9 | 1035.4 | 1058.8 | 1075.4 | 1087.2 | 1095.7 | 1102.2 | 1108.1 | –
298.15 K | 924.4 | 993.4 | – | 1055.7 | – | 1084.3 | 1092.8 | 1099.4 | 1105.3 | –
303.15 K | 920.4 | 990 | 1029 | – | 1069.4 | 1081.4 | 1089.9 | 1096.5 | 1102.5 | 1107.6
308.15 K | – | 986.6 | – | – | – | 1078.5 | 1087.1 | 1093.8 | 1099.7 | 1104.8
313.15 K | 912.5 | – | 1022.7 | 1046.8 | 1063.6 | 1075.6 | 1084.3 | 1091 | – | 1102.1
318.15 K | – | – | 1019.6 | 1043.8 | – | 1072.9 | – | 1088.2 | 1094.2 | –
323.15 K | 904.5 | 976.4 | – | 1040.9 | 1057.6 | – | – | 1085.5 | 1091.5 | 1096.7
328.15 K | 900.5 | – | 1013.3 | 1037.9 | – | – | 1076 | 1082.9 | 1088.8 | 1094
333.15 K | 896.6 | 969.7 | 1010.2 | 1035 | – | 1064.1 | 1073.2 | 1080.3 | – | 1091.4

C[N+](C)(C)CCC[n+]1ccccc1.N#C[N-]C#N.N#C[N-]C#N + CC#N
mass density [kg/m3]
Conditions | x1 = 0.0999 | x1 = 0.1999 | x1 = 0.2998 | x1 = 0.3997 | x1 = 0.4999 | x1 = 0.6002 | x1 = 0.7001 | x1 = 0.7998 | x1 = 0.8997 | x1 = 1
283.15 K | 940.9 | 1020.7 | 1070.2 | 1098.7 | 1117.5 | 1130.8 | – | 1150 | 1157.6 | 1164
288.15 K | 937.1 | 1017.1 | 1066.9 | 1095.6 | 1114.3 | 1127.7 | 1138.3 | 1147.1 | – | –
293.15 K | 933.2 | – | 1063.6 | – | 1111.2 | 1124.7 | 1135.2 | 1144.1 | 1151.7 | –
298.15 K | 929.4 | 1009.9 | 1060.3 | 1089.4 | 1108.1 | 1121.6 | 1132.2 | 1141.2 | – | 1155
303.15 K | – | 1006.4 | – | 1086.2 | 1105 | 1118.6 | 1129.2 | – | 1145.9 | 1152.1
308.15 K | 921.5 | – | 1053.7 | 1083.1 | 1102 | 1115.5 | 1126.2 | 1135.2 | 1143 | 1149.2
313.15 K | 917.6 | 999.3 | 1050.5 | 1080 | 1098.9 | 1112.6 | 1123.2 | 1132.3 | 1140.1 | 1146.3
318.15 K | 913.8 | 995.8 | – | 1076.7 | 1096 | 1109.6 | 1120.2 | 1129.3 | 1137.2 | 1143.5
323.15 K | – | 992.3 | 1044 | 1073.5 | 1093.1 | 1106.6 | 1117.4 | 1126.4 | 1134.4 | –
328.15 K | 905.4 | 988.9 | 1040.8 | 1070.4 | 1090.2 | 1103.7 | 1114.5 | 1123.6 | 1131.6 | 1137.9
333.15 K | 901.7 | – | 1037.7 | 1067.4 | 1087.2 | – | 1111.7 | 1120.8 | 1128.9 | 1135.1
